Experimental findings from PubChem BioAssay AID651582 (Sanford-Burnham Center for Chemical Genomics, 2012) are described below.

Some of the results follow. Shown are side measurements of this screen, not its main read-out; they come without a call. Most of these compounds were active or inconclusive in the main read-out, so they are no random draw.

A short description of the assay: inhibitors of triacylglycerol accumulation, primary screen, cell-based, uHTS, fluorescence, H9c2 (AID 651582). The conditions noted are these: H9c2 cells, Nile Red lipid (TAG) fluorescence; measured here:; at 12.5 µM; cells loaded with 200 µM oleic acid.
With `Fc1cccc(Nc2nc(-c3ccncc3)nc3ccccc23)c1`, the DAPI nuclei signal change (viability), lower = more cytotoxic is -23.6%.

In the case of `C(=N\Nc1nc2ccccc2[nH]1)/C1CCCCC1`, the DAPI nuclei signal change (viability), lower = more cytotoxic was -19%.

Consider `COC(=O)c1c(NC(=O)c2ccc([N+](=O)[O-])o2)sc2c1CCN(C(C)C)C2`, for which the DAPI nuclei signal change (viability), lower = more cytotoxic is -43.5%.

For `CCC(C)NCCOCCOc1ccc(Cl)c2ccccc12` (stereo unspecified), the DAPI nuclei signal change (viability), lower = more cytotoxic was -8.59%.

Consider `Nc1cc2c(cc1Br)[nH]c(=O)c1ccccc12`, for which the DAPI nuclei signal change (viability), lower = more cytotoxic was -48.9%.

For the molecule `COc1ccccc1N1CCN(CC(=O)Nc2cc(C)nn2-c2nc(C)cc(C)n2)CC1`, the DAPI nuclei signal change (viability), lower = more cytotoxic was -18.9%.

Regarding `COc1cc([C@@H]2c3cc4c(cc3[C@H](O)[C@H]3COC(=O)[C@H]23)OCO4)cc(OC)c1OC`, the DAPI nuclei signal change (viability), lower = more cytotoxic was -28.6%.

For the molecule `O=C(Nc1ccc(Cl)cc1)c1csc([C@@H]2C[C@H](O)[C@@H](CO)O2)n1`, the DAPI nuclei signal change (viability), lower = more cytotoxic was -40.3%.

Regarding `C[C@H]1CCCCO[C@H](CN(C)CC2CCCCC2)[C@@H](C)CN([C@@H](C)CO)C(=O)c2cc(NS(=O)(=O)c3ccccc3)ccc2O1`, the DAPI nuclei signal change (viability), lower = more cytotoxic was -29.8%.

`Cc1cc(N2CCOCC2)n2nc(C)c(-c3ccccc3)c2n1`: the DAPI nuclei signal change (viability), lower = more cytotoxic is -8.11%.

For the molecule `COc1ccc(NC(=O)c2cc3c(-c4ccc(OC)c(OC)c4)nn(C)c3s2)cc1OC`, the DAPI nuclei signal change (viability), lower = more cytotoxic is -13.3%.

On to `O=C(Nc1ccc2ccccc2c1)[C@@H]1C[C@H]1[C@@H](NP(=O)(c1ccccc1)c1ccccc1)c1ccccc1`, for which the DAPI nuclei signal change (viability), lower = more cytotoxic is -2.78%.

In the case of `CC(C)COc1ccc(C(=O)Nc2scc(-c3ccc(Cl)cc3Cl)c2C(N)=O)cc1`, the DAPI nuclei signal change (viability), lower = more cytotoxic was 2.94%.

Take `C#CCOCCOCCOCCNc1nc(N2CCN(C(=O)[C@H](CCCCN)n3cc([C@@H](N)CO)nn3)CC2)nc(N2CCN(C(=O)[C@H](CCCCN)n3cc([C@@H](N)CC(C)C)nn3)CC2)n1`: the DAPI nuclei signal change (viability), lower = more cytotoxic was -34.6%.

For the molecule `CC(C)NC(=O)N(C)C[C@H]1Oc2cc(C#Cc3ccc(F)cc3)ccc2S(=O)(=O)N([C@H](C)CO)C[C@H]1C`, the DAPI nuclei signal change (viability), lower = more cytotoxic was -3.04%.

For `COc1cc(-c2nnc3n2N=C(c2ccccc2)CS3)cc(OC)c1OC`, the DAPI nuclei signal change (viability), lower = more cytotoxic is -24.6%.

As to `O=C(Nc1ccc(/C=C/c2nc3ccccc3o2)cc1)c1c(F)cccc1F`, the DAPI nuclei signal change (viability), lower = more cytotoxic worked out at 30.5%.

Consider `Cc1cccc(Nc2nc(NCc3ccco3)nc(N3CCOCC3)n2)c1`, for which the DAPI nuclei signal change (viability), lower = more cytotoxic was -19.8%.

Consider `COc1cc(CNC(=O)Nc2nc(C(N)Cc3ccc(C(F)(F)F)cc3)cs2)cc(OC)c1OC` (stereo unspecified), for which the DAPI nuclei signal change (viability), lower = more cytotoxic was -22.8%.

For the molecule `Cc1cc(C)c2nc(-c3ccncc3)cc(C(=O)N3CCN(Cc4ccccc4Cl)CC3)c2c1`, the DAPI nuclei signal change (viability), lower = more cytotoxic came to 0.00848%.

In the case of `CCOC(=O)c1c(SCCN2CCCC2)n(-c2ccccc2)c(=S)n(-c2ccccc2)c1=O`, the DAPI nuclei signal change (viability), lower = more cytotoxic was -44.3%.

For the molecule `CCN(CC)CCNc1ccc(C)c2sc3ccc(O)cc3c(=O)c12`, the DAPI nuclei signal change (viability), lower = more cytotoxic is -43.3%.

Regarding `COc1cc(OC)cc(C(=O)N2CC(=O)Nc3ccccc32)c1`, the DAPI nuclei signal change (viability), lower = more cytotoxic is -28.9%.

Turning to `Cn1c(N)c(C(=O)COC(=O)c2ccc([N+](=O)[O-])o2)c(=O)n(C)c1=O`, the DAPI nuclei signal change (viability), lower = more cytotoxic was -47.2%.

With `O=c1nc(N/N=C/C=C/c2ccccc2)cn[nH]1`, the DAPI nuclei signal change (viability), lower = more cytotoxic was -20%.

For `COc1cc(C(CCN2CCCCC2)c2c(OC)cc(OC)c3c(-c4ccccc4)cc(=O)oc23)cc(OC)c1OC` (stereo unspecified), the DAPI nuclei signal change (viability), lower = more cytotoxic is -29.6%.

`CC(C)C(C)(C#N)NC(=O)CSc1nc2scc(-c3ccco3)c2c(=O)n1-c1ccccc1` (stereo unspecified): the DAPI nuclei signal change (viability), lower = more cytotoxic was -4.39%.

`COc1ccc(/C=N/NC(=O)COc2ccccc2-c2ccccc2)cc1`: the DAPI nuclei signal change (viability), lower = more cytotoxic was -20.6%.

Take `CCN(C(=O)COC(=O)c1cc(-c2ccccc2)nc2c1c(C)nn2-c1ccc(C)cc1)C1CCS(=O)(=O)C1` (stereo unspecified): the DAPI nuclei signal change (viability), lower = more cytotoxic worked out at 33.5%.

For the molecule `O=C(c1ccccc1)c1ccc2nc(-c3ccc(NC(=O)c4ccccc4F)cc3)[nH]c2c1`, the DAPI nuclei signal change (viability), lower = more cytotoxic is -18.4%.

As for `COc1ccc2nc(NN=C(C)c3ccccn3)cc(C)c2c1`, the DAPI nuclei signal change (viability), lower = more cytotoxic is -38.6%.

With `O=C1C=CC(O)C2(CO)OC12` (stereo unspecified), the DAPI nuclei signal change (viability), lower = more cytotoxic was -42.6%.

Turning to `CN(C)CCCn1c(=O)n(CCc2ccccc2)c(=O)c2c3c(sc21)CCCCC3`, the DAPI nuclei signal change (viability), lower = more cytotoxic is -10.7%.

For the molecule `COc1ccc(NC(=O)O[C@@H](C)[C@@H]2CN3CCc4c([nH]c5ccc(-c6ccc(OC)cc6)cc45)[C@@H]3C[C@@H]2N(C)C(=O)Nc2ccc(OC)cc2)cc1`, the DAPI nuclei signal change (viability), lower = more cytotoxic is -6.95%.

On to `Cc1ccc(F)c(Oc2cc(NN3CCCCC3)c([N+](=O)[O-])cc2[N+](=O)[O-])c1`, for which the DAPI nuclei signal change (viability), lower = more cytotoxic was -28.1%.

As to `CC(C)C[C@@H](CN1CCCC1CN1C(=S)NC[C@@H]1Cc1ccc(O)cc1)N1C[C@H](Cc2ccccc2)N(CC2CCCCC2)C1=S` (stereo partly specified), the DAPI nuclei signal change (viability), lower = more cytotoxic was -49.6%.

Take `CCc1cccc2c1Sc1ccccc1CC2N1CCNCC1` (stereo unspecified): the DAPI nuclei signal change (viability), lower = more cytotoxic is -29.4%.

As for `C=CC[C@@H](CC(=O)N(CCO)Cc1ccccc1)C(=O)N[C@H](COC(=O)[C@@H](CC=C)CC(=O)OC(C)(C)C)Cc1ccccc1`, the DAPI nuclei signal change (viability), lower = more cytotoxic is -6.01%.

Consider `CS(=O)(=O)Oc1ccc2c(c1)O/C(=C\C=C\c1ccccc1)C2=O`, for which the DAPI nuclei signal change (viability), lower = more cytotoxic was -45.5%.

For `Nc1ccccc1Nc1cccc(C(F)(F)F)c1`, the DAPI nuclei signal change (viability), lower = more cytotoxic is -28%.

In the case of `CCOC(=O)[C@H]1[C@H]2COc3ccc(C)cc3[C@@H]2N2C(=O)c3cc(Br)ccc3NC(=O)[C@@]12C`, the DAPI nuclei signal change (viability), lower = more cytotoxic was -11.9%.

Regarding `CC(=NNc1nc2ccccc2s1)c1ncccn1`, the DAPI nuclei signal change (viability), lower = more cytotoxic is -43.2%.

In the case of `CN(C)CCCN1c2ccccc2Sc2ccc3ccccc3c21`, the DAPI nuclei signal change (viability), lower = more cytotoxic is -10.2%.

With `O=c1cc(-c2ccccc2)[nH]c2ccccc12`, the DAPI nuclei signal change (viability), lower = more cytotoxic was -20.2%.

With `O=C(Nc1cccc(Cl)c1)c1nc[nH]c1C(=O)NCCCNC(=O)c1[nH]cnc1C(=O)Nc1cccc(Cl)c1`, the DAPI nuclei signal change (viability), lower = more cytotoxic came out at 4.76%.

Take `O=C(CSc1nc(-c2ccco2)cc(C(F)(F)F)n1)Nc1ccc2c(c1)CCC2`: the DAPI nuclei signal change (viability), lower = more cytotoxic is -13%.
